Measured values published in PubChem BioAssay AID1508624 (National Center for Advancing Translational Sciences (NCATS), 2021).
Among all 48,000 compounds or so, about 120 (0.25%) were called active. Roughly 4% stayed inconclusive and do not appear here. The call rests on the fitted dose curve; in most records, active means well fitted activation curve with a large enough effect; inconclusive means small, poorly fitted or top-dose-only effect, or another doubt; inactive means no such curve, though single readings can be large or run the other way. Some of the results follow.

assay: Primary qHTS for Identification of Small Molecule Activators of Huntingtin-Antisense Promoter Activity; conditions: HEK293 HTT-AS promoter firefly luciferase reporter (activity 0% = vehicle and -100% = no light), 24 h; series mostly up to 57.5 µM; activity change, positive = activation: at the top concentration; further: nearly all actives have a fitted effect of over 55% in size
In short: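 Quantitative HTS used concentration series of up to 57.5 uM final on HEK293 luciferase reporter cells, 24 h at 37 degrees C. Readout was Dual-Glo firefly luminescence.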

Structure (SMILES) | activity change, positive = activation
COc1ccc(-c2noc(N3CCC(C(=O)Nc4cccc(C)c4C)CC3)n2)cc1 | inactive: -59%
COc1ccc(CCNC(=O)c2ccc3c(c2)CCN3S(=O)(=O)c2ccccc2)cc1 | inactive: -22%
CCOc1cc(CNC(=O)c2cc(-c3ccccc3)n[nH]2)cc(OCC)c1OCC | inactive: -9.96%
COc1ccc(NC(=O)c2oc3ccc(S(=O)(=O)N4CCOCC4)cc3c2C)c(OC)c1 | inactive: -17.4%
COc1ccc(CCNC(=O)c2cnn(-c3ccc(F)cc3)c2C2CCN(C(=O)OC(C)(C)C)CC2)cc1OC | inactive: -12.5%
COc1ccc(N2CCN(C(=O)c3cc4c(=O)n(Cc5cccnc5)ccc4nc3C)CC2)cc1 | inactive: -11%
O=C(CN1C(=O)C2(SCC(=O)N2c2ccc(F)c(F)c2)c2ccccc21)NCCc1ccccc1 (stereo not drawn) | inactive: -10.2%
CCOc1cc(C(c2c(C)[nH]n(-c3ccccc3)c2=O)c2c(C)[nH]n(-c3ccccc3)c2=O)ccc1O | inactive: -87%
Cc1[nH]c2ccc(C(=O)N3CCN(c4ccccc4F)CC3)cc2c1C | inactive: -16.4%
CCN(CC)S(=O)(=O)c1ccc(NC(=O)Cn2ncc3c([nH]c4ccccc43)c2=O)cc1 | inactive: -22.2%
CC(Oc1ccccc1)C(=O)Nc1ccc(C(=O)OCc2cc(=O)n3nc(C(C)C)sc3n2)cc1 (stereo not drawn) | inactive: 18.7%
O=C(NCCc1ccc(F)cc1)C(=O)NCC(c1ccco1)S(=O)(=O)c1ccccc1 (stereo not drawn) | inactive: -21.4%
CCOc1ccc(/C=C/c2nc(C#N)c(N3CCN(CC)CC3)o2)cc1 | inactive: -14.3%
COC(=O)c1ccc(NC(=O)c2c(NCc3cccc(F)c3)sc3c2CCCC3)cc1 | inactive: -7.11%
Cc1cc2c(cc1S(=O)(=O)N(CCN(C)C)Cc1ccccc1)OCC(=O)N2 | inactive: -7.09%
COc1ccccc1C(c1c(O)cc(C)n(Cc2ccco2)c1=O)N1CCCCC1 (stereo not drawn) | inactive: 8.53%
CCC(Oc1ccccc1F)C(=O)Nc1cc(-c2ccccc2)no1 (stereo not drawn) | inactive: 13.5%
COc1ccc(C(=O)NCCn2cc(SCC(=O)Nc3ccc4c(c3)OCCO4)c3ccccc32)cc1 | inactive: -63.6%
Cc1cccc(N2CCN(S(=O)(=O)c3cc(C(=O)Nc4ccc(Oc5ccccc5)cc4)ccc3F)CC2C)c1 (stereo not drawn) | inactive: -46.1%
Cc1nn(-c2ccccc2)c2sc(C(=O)Nc3ccc(Cl)cc3Cl)cc12 | inactive: -7.11%
CCCCN(C)CCNC(=O)c1nn(-c2ccc(OC)c(Cl)c2)c(=O)c2c1c1ccccc1n2C | inactive: -3.01%
COc1ccc(CNC(=O)Cn2c(=O)c3cccn3c3cccnc32)cc1 | inactive: -12.4%
COc1ccc(C(=O)Nc2nnc(SCc3cc(=O)c4cc(C)ccc4[nH]3)s2)cc1OC | inactive: -6.2%
Cc1cccn2c(=O)c(C(=O)N3CCN(c4ccccc4F)CC3)cnc12 | inactive: -9.76%

Structure (SMILES) | activity change, positive = activation
CCN(CC)c1ccc2cc(-c3nnc(Nc4ccc(C)cc4)s3)c(=O)oc2c1 | inactive: -12.4%
COC(=O)C1=C(CS(=O)(=O)c2ccc(C)cc2C)NC(=O)NC1c1ccc(C)cc1 (stereo not drawn) | inactive: -35.6%
Cc1cc(C)c(S(=O)(=O)NCc2ccc3c(c2)CCN3C(=O)c2ccccc2)c(C)c1 | inactive: -29.8%
CCOc1ccccc1NC(=O)Cn1nnc(C(=O)NCc2cccs2)c1N | inactive: -37.7%
CC(=O)N1c2ccccc2C(=O)C1N1CCN(c2ccc(Cl)cc2)CC1 (stereo not drawn) | inactive: -16.5%
CCOc1c(Br)cc(C2C=C(C(=O)O)Nc3ncnn32)cc1OC (stereo not drawn) | inactive: 4.61%
COc1ccc(NCc2cc3cc4c(cc3n(CC(=O)Nc3ccc(C)cc3C)c2=O)OCO4)cc1 | inactive: 4.55%
O=C(NCc1ccccc1)c1cc(Sc2cccc(Cl)c2)nc2ccccc12 | inactive: -18.3%
CCOC(=O)c1cc(OC(=O)c2ccccc2F)n(-c2ccccc2)n1 | inactive: -9.34%
Cc1ccc(-c2nc(S(=O)(=O)c3ccc(F)cc3)c(N3CCN(c4ccccc4)CC3)o2)cc1 | inactive: -5.5%
Nc1nc2c(ncn2COCCO)c(=O)[nH]1 | inactive
CC(C)C[C@H](N)c1nnc(SCc2ccc(Cl)cc2Cl)o1 | inactive: -15.9%
Cc1ccccc1Nc1nn2c(=O)c3ccc(C(=O)NCC(C)c4ccccc4)cc3nc2s1 (stereo not drawn) | inactive: -37.3%
CC1=C(c2ccc(C(C)C)cc2)S(=O)(=O)N=C1N1CCN(c2ccccc2F)CC1 | inactive: -15.7%
COc1ccc(S(=O)(=O)N(CC(=O)NCCSc2ccc(C)cc2)c2ccc(C)cc2)cc1 | inactive: -21.9%
CCOc1ccccc1NC(=O)CSc1c2c(nc3ccc(Cl)cc13)CCCC2 | inactive: -15.2%
CCOC(=O)C1CCCN(S(=O)(=O)c2cc(-c3onc(C)c3C)ccc2OC)C1 (stereo not drawn) | inactive: -30%
CCc1c(-c2ccccc2)nc2ccccc2c1C(=O)NC(C)c1ccccc1 (stereo not drawn) | inactive: -34.4%
NC(=O)n1c(O)c(C(=O)c2cccs2)c2cc(Cl)ccc21 | inactive: -72.9%
CCOc1ccccc1NC(=O)c1nc(S(=O)(=O)Cc2cccc(C)c2)ncc1Cl | inactive: -22.4%
COc1ccc(-c2noc(CNC(=O)c3cc(OC)c(OC)c(OC)c3)n2)cc1 | inactive: -8.88%
Cc1[nH]c2ccc(C(=O)NCCCN3CCCCC3)cc2c1C | inactive: -8.37%
CC(=O)N1CCC(N(Cc2ccc(C)o2)C(=O)Nc2ccccc2F)CC1 | inactive: -1.35%
CCCN(c1ccccc1F)S(=O)(=O)c1ccc2c(c1)C(C)(C)C(=O)N2C | inactive: -31.3%
